Source: article PMC11103113, “Evidence for dual targeting control of Arabidopsis 6-phosphogluconate dehydrogenase isoforms by N-terminal phosphorylation” (Journal of Experimental Botany, 2024)
No constants are given. Whether binding was seen depends on the method and setting. For some assays here: In cells and extracts the contact can be indirect. Some binding calls cover weakened binding; strength is not graded here. Where a sequence is shown, tags or fusion partners need not be part of it.

T1: Trxm2 with C-terminal split YFP (Arabidopsis thaliana) (UniProt Q9SEU8)
T1 sequence: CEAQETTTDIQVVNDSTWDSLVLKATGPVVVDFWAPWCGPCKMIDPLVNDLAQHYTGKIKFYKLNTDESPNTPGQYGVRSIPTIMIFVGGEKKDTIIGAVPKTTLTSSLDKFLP

T2: Trxm2 with N-terminal split YFP (Arabidopsis thaliana) (UniProt Q9SEU8)
T2 sequence: T1 sequence

T3: thioredoxin m2 (Trxm2), yeast two-hybrid fusion (Arabidopsis thaliana) (UniProt Q9SEU8)
T3 sequence: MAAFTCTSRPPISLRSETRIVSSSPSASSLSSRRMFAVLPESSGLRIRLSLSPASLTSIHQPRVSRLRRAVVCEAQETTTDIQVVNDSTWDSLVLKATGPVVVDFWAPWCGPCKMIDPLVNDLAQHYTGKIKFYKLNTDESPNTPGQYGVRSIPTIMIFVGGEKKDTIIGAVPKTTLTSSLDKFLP

B1: PGD1 with C-terminal split YFP (enzyme, UniProt Q9SH69 1-487)
chain: MESAALSRIGLAGLAVMGQNLALNIAEKGFPISVYNRTTSKVDETLDRAAVEGNLPVSGQYSPRDFVLSIQRPRSLIILVKAGAPVDQTIDAFSEYMEPGDCIIDGGNEWYQNTERRISEAEQKGLLYLGMGVSGGEEGARNGPSLMPGGSFQAYDNIKDILEKVAAQVEDGPCVTYIGEGGSGNFVKMVHNGIEYGDMQLISEAYDVLKNVGGLSNEELAEIFTEWNSGELESFLVEITSDIFRVKDEFGDGELVDKILDKTGMKGTGKWTVQQAAELSVAAPTIAASLDCRYLSGLKDERENAAKVLREAGLKEEIGSASSGIDKKRLVDDVRQALYASKICSYAQGMNLLRAKSLEKSWNLNFGELARIWKGGCIIRAVFLDRIKKAYQRNPDLASLVVDPEFAKEMVQRQAAWRRVVGLAVSAGISTPGMCASLAYFDTYRRARLPANLVQAQRDLFGAHTYERTDRPGAYHTEWTKLARKNH
B2: PGD3 with C-terminal split YFP (enzyme, UniProt Q9FFR3 1-487)
chain: MESVALSRIGLAGLAVMGQNLALNIADKGFPISVYNRTTSKVDETLDRASNEGKLPVAGQYSPRDFVLSIQRPRSVIILVKAGAPVDQTISALSEYMEPGDCIIDGGNEWYQNTERRIVEAEKKGLLYLGMGVSGGEEGARNGPSLMPGGSFTAYNNVKDILEKVAAQVEDGPCVTYIGEGGSGNFVKMVHNGIEYGDMQLISEAYDVLKNVGGLSNDELAEIFTEWNRGELESFLVEITSDIFRVKDDYGDGELVDKILDKTGMKGTGKWTVQQAAELSVAAPTIAASLDCRYLSGLKDERENAAKVLEEAGLKEDIGSASRGVDKKRLIDDVRQALYASKICSYAQGMNLLRAKSLEKGWDLNLGEMARIWKGGCIIRAVFLDRIKKAYQRNPNLASLVVDPDFAKEMVQRQAAWRRVVGLAISAGISTPGMCASLAYFDTYRRARLPANLVQAQRDLFGAHTYERTDRPGAYHTEWTKLARKSQ
B3: split YFP–PGD2_Δ15 (N-terminal split YFP) (domain or fragment, UniProt Q9FWA3 16-486)
chain: MGQNLALNIAEKGFPISVYNRTTSKVDETVERAKKEGNLPLYGFHDPESFVKSIQKPRVIIMLVKAGSPVDQTIKTLSAYLEKGDCIVDGGNEWYENTERREKAVAENGFLYLGMGVSGGEEGARNGPSMMPGGSYEAYKNIEDIVLKVAAQVRDSGPCVTYIGKGGSGNFVKMVHNGIEYGDMQLIAEAYDVLKSVGKLSNEELHSVFSDWNKGELESFLVEITADIFGIKDDKGDGHLVDKVLDKTGMKGTGKWTVQQAAELSVPAPTIESSLDARFLSGLKDERVQAAKVFKAGGFGDILTDQKVDKKQLVDDVRKALYASKICSYAQGMNLIRAKSIEKGWGLKLGELARIWKGGCIIRAIFLDRIKQAYDRNAELANLLVDPEFAKEIIERQSAWRRVVCLAINSGISTPGMSASLAYFDSYRRERLPANLVQAQRDYFGAHTYERTDVEGSFHTEWFKIARQSKI
B4: PGD1 with N-terminal split YFP (enzyme, UniProt Q9SH69 1-487)
chain: B1 chain
B5: PGD3 with N-terminal split YFP (enzyme, UniProt Q9FFR3 1-487)
chain: B2 chain
B6: 6-phosphogluconate dehydrogenase 1 (PGD1), full length, yeast two-hybrid fusion (enzyme, UniProt Q9SH69 1-487)
chain: B1 chain
B7: 6-phosphogluconate dehydrogenase 2 (PGD2), full length, yeast two-hybrid fusion (enzyme, UniProt Q9FWA3 1-486)
chain: MAVQPTRIGLAGLAVMGQNLALNIAEKGFPISVYNRTTSKVDETVERAKKEGNLPLYGFHDPESFVKSIQKPRVIIMLVKAGSPVDQTIKTLSAYLEKGDCIVDGGNEWYENTERREKAVAENGFLYLGMGVSGGEEGARNGPSMMPGGSYEAYKNIEDIVLKVAAQVRDSGPCVTYIGKGGSGNFVKMVHNGIEYGDMQLIAEAYDVLKSVGKLSNEELHSVFSDWNKGELESFLVEITADIFGIKDDKGDGHLVDKVLDKTGMKGTGKWTVQQAAELSVPAPTIESSLDARFLSGLKDERVQAAKVFKAGGFGDILTDQKVDKKQLVDDVRKALYASKICSYAQGMNLIRAKSIEKGWGLKLGELARIWKGGCIIRAIFLDRIKQAYDRNAELANLLVDPEFAKEIIERQSAWRRVVCLAINSGISTPGMSASLAYFDSYRRERLPANLVQAQRDYFGAHTYERTDVEGSFHTEWFKIARQSKI
B8: 6-phosphogluconate dehydrogenase 3 (PGD3), full length, yeast two-hybrid fusion (enzyme, UniProt Q9FFR3 1-487)
chain: B2 chain
B9: PGD2_Δ15 (starting with the second Met at position 16), yeast two-hybrid fusion (domain or fragment, UniProt Q9FWA3 16-486)
chain: B3 chain
B10: N-terminally truncated PGD1 (starting with the second Met at position 17), yeast two-hybrid fusion (domain or fragment, UniProt Q9SH69 17-487)
chain: MGQNLALNIAEKGFPISVYNRTTSKVDETLDRAAVEGNLPVSGQYSPRDFVLSIQRPRSLIILVKAGAPVDQTIDAFSEYMEPGDCIIDGGNEWYQNTERRISEAEQKGLLYLGMGVSGGEEGARNGPSLMPGGSFQAYDNIKDILEKVAAQVEDGPCVTYIGEGGSGNFVKMVHNGIEYGDMQLISEAYDVLKNVGGLSNEELAEIFTEWNSGELESFLVEITSDIFRVKDEFGDGELVDKILDKTGMKGTGKWTVQQAAELSVAAPTIAASLDCRYLSGLKDERENAAKVLREAGLKEEIGSASSGIDKKRLVDDVRQALYASKICSYAQGMNLLRAKSLEKSWNLNFGELARIWKGGCIIRAVFLDRIKKAYQRNPDLASLVVDPEFAKEMVQRQAAWRRVVGLAVSAGISTPGMCASLAYFDTYRRARLPANLVQAQRDLFGAHTYERTDRPGAYHTEWTKLARKNH
B11: N-terminally truncated PGD3 (starting with the second Met at position 17), yeast two-hybrid fusion (domain or fragment, UniProt Q9FFR3 17-487)
chain: MGQNLALNIADKGFPISVYNRTTSKVDETLDRASNEGKLPVAGQYSPRDFVLSIQRPRSVIILVKAGAPVDQTISALSEYMEPGDCIIDGGNEWYQNTERRIVEAEKKGLLYLGMGVSGGEEGARNGPSLMPGGSFTAYNNVKDILEKVAAQVEDGPCVTYIGEGGSGNFVKMVHNGIEYGDMQLISEAYDVLKNVGGLSNDELAEIFTEWNRGELESFLVEITSDIFRVKDDYGDGELVDKILDKTGMKGTGKWTVQQAAELSVAAPTIAASLDCRYLSGLKDERENAAKVLEEAGLKEDIGSASRGVDKKRLIDDVRQALYASKICSYAQGMNLLRAKSLEKGWDLNLGEMARIWKGGCIIRAVFLDRIKKAYQRNPNLASLVVDPDFAKEMVQRQAAWRRVVGLAISAGISTPGMCASLAYFDTYRRARLPANLVQAQRDLFGAHTYERTDRPGAYHTEWTKLARKSQ

Biological target: T1, Trxm2 with C-terminal split YFP (Arabidopsis thaliana)
Assay: split reporter; BiFC of split YFP fusion constructs in Arabidopsis leaf protoplasts, 48 h post-transfection; YFP halves both C-terminal or both N-terminal

With B1 as the binder, how does the binding read?
Its binding is “binds”.

For B2, which binding is on record?
Its binding is “binds”.

Biological target: T2, Trxm2 with N-terminal split YFP (Arabidopsis thaliana)
Assay: as above

For B3, which binding is on record?
Its binding is “binds”.

With B4 as the binder, how does the binding read?
The binding was “binds”.

With B5 as the binder, how does the binding read?
Its binding is “binds”.

Biological target: T3, thioredoxin m2 (Trxm2), yeast two-hybrid fusion (Arabidopsis thaliana)
Assay: two-hybrid; yeast strain SMY3, drop-out series of BD–AD combinations; read-out: Trxm2 autoactivation (with the empty vector) is revoked by an interacting partner

For B6, which binding is on record?
Its binding is “binds”.

With B7 as the binder, how does the binding read?
The binding was “binds”.

With B8 as the binder, how does the binding read?
The binding was “binds”.

With B9 as the binder, how does the binding read?
Its binding is “binds”.

For B10, which binding is on record?
Its binding is “no binding”.

With B11 as the binder, how does the binding read?
The binding was “no binding”.
